In the supplement of paper PMC4967469:

Experiments:
Assay in all cases: Viability of human cancer cell lines after 72 h of drug (GDSC screen)
MP470 = compound: S=C(NCc1ccc2c(c1)OCO2)N1CCN(c2ncnc3c2oc2ccccc23)CC1 [MP470]; details: top dose 20 µM; top dose inferred
Method: (§1)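 Human cancer cell lines in 384-well plates, medium with 10% serum, drug for 72 h over a 256-fold dose range (nine 2-fold or five 4-fold steps up to the top dose). Adherent lines were fixed and stained with the nucleic acid dye Syto60, suspension lines read with resazurin; signal relative to control wells, capped at 0 and 100%. One two-parameter sigmoid per drug and line, fitted in a mixed model over all curves with the slope shared within a line.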

LFM-A13 = compound: C/C(O)=C(\C#N)C(=O)Nc1cc(Br)ccc1Br [LFM-A13]; details: top dose 16 µM; top dose inferred
Method: as §1

Bicalutamide = compound: CC(O)(CS(=O)(=O)c1ccc(F)cc1)C(=O)Nc1ccc(C#N)c(C(F)(F)F)c1 [Bicalutamide]; details: top dose inferred
Method: as §1

KIN001-270 = compound: Cc1ccc(Nc2cc(-c3cccc(N4C(=O)c5ccccc5C4=O)c3)ncn2)cc1NS(C)(=O)=O [KIN001-270]; details: top dose 20 µM; top dose inferred
Method: as §1

TW-37 = compound: CC(C)c1ccccc1Cc1cc(C(=O)Nc2ccc(S(=O)(=O)c3ccccc3C(C)(C)C)cc2)c(O)c(O)c1O [TW-37]; details: top dose 5 µM
Method: as §1

AUY922 = compound: CCNC(=O)c1noc(-c2cc(C(C)C)c(O)cc2O)c1-c1ccc(CN2CCOCC2)cc1 [AUY922]; details: top dose 0.256 µM; top dose inferred
Method: as §1

T0901317 = compound: O=S(=O)(c1ccccc1)N(CC(F)(F)F)c1ccc(C(O)(C(F)(F)F)C(F)(F)F)cc1 [T0901317]; details: top dose 10.24 µM; top dose inferred
Method: as §1

Gemcitabine = compound: Nc1ccn([C@@H]2O[C@H](CO)[C@@H](O)C2(F)F)c(=O)n1 [Gemcitabine]; details: top dose 1.024 µM
Method: as §1

[1] = top dose 1.024 µM, screen: GDSC drug entry 150
[2] = top dose 10 µM, screen: GDSC drug entry 1502

Cell Line	AUC (MP470)	IC50 (MP470)	AUC (LFM-A13)	IC50 (LFM-A13)	AUC (Bicalutamide; [1])	IC50 (Bicalutamide; [1])	AUC (KIN001-270)	IC50 (KIN001-270)	AUC (TW-37)	IC50 (TW-37)	AUC (AUY922)	IC50 (AUY922)	AUC (T0901317)	IC50 (T0901317)	AUC (Gemcitabine)	IC50 (Gemcitabine)	AUC (Bicalutamide; [2])	IC50 (Bicalutamide; [2])
201T (lung adenocarcinoma, adherent)	0.964	> 20000 nM	0.937	> 16000 nM	0.978	> 1020 nM	0.981	> 20000 nM	0.657	960 nM	0.411	8.56 nM	0.949	> 10200 nM	0.818	774 nM	–	–
786-0 (kidney, adherent)	0.949	> 20000 nM	0.941	> 16000 nM	0.988	> 1020 nM	0.968	> 20000 nM	0.828	2760 nM	0.291	4.35 nM	0.974	> 10200 nM	0.027	< 4 nM	0.986	> 10000 nM
A172 (glioma, adherent)	0.93	> 20000 nM	0.881	15700 nM	0.989	> 1020 nM	0.976	> 20000 nM	0.669	906 nM	0.649	40.6 nM	0.981	> 10200 nM	0.347	24.5 nM	0.987	> 10000 nM
A204 (rhabdomyosarcoma, adherent)	0.92	> 20000 nM	0.922	> 16000 nM	0.971	> 1020 nM	0.972	> 20000 nM	0.685	1210 nM	0.464	12.4 nM	0.971	> 10200 nM	0.296	14.3 nM	0.958	> 10000 nM
A375 (melanoma, adherent)	0.991	> 20000 nM	0.969	> 16000 nM	0.991	> 1020 nM	0.991	> 20000 nM	0.344	126 nM	0.456	12.4 nM	0.991	> 10200 nM	0.039	< 4 nM	0.986	> 10000 nM
A427 (non-small cell lung carcinoma, adherent)	0.94	> 20000 nM	0.971	> 16000 nM	0.985	> 1020 nM	0.98	> 20000 nM	0.389	155 nM	0.517	17.8 nM	0.974	> 10200 nM	0.77	395 nM	0.985	> 10000 nM
A673 (rhabdomyosarcoma, adherent)	0.962	> 20000 nM	0.974	> 16000 nM	0.988	> 1020 nM	0.985	> 20000 nM	0.379	151 nM	0.615	31.9 nM	0.97	> 10200 nM	0.342	24.5 nM	0.986	> 10000 nM
A2058 (melanoma, adherent)	0.97	> 20000 nM	0.987	> 16000 nM	0.99	> 1020 nM	0.983	> 20000 nM	0.379	151 nM	0.476	13.9 nM	0.971	> 10200 nM	0.273	15.8 nM	–	–
ABC-1 (lung adenocarcinoma, adherent)	0.783	10300 nM	0.972	> 16000 nM	0.975	> 1020 nM	0.953	> 20000 nM	0.535	398 nM	0.596	31.1 nM	0.981	> 10200 nM	0.325	18.7 nM	0.958	> 10000 nM
BCPAP (thyroid, adherent)	0.969	> 20000 nM	0.943	> 16000 nM	0.988	> 1020 nM	0.968	> 20000 nM	0.469	259 nM	0.59	27.5 nM	0.974	> 10200 nM	0.125	4.85 nM	0.974	> 10000 nM
BEN (non-small cell lung carcinoma, adherent)	0.849	18400 nM	0.972	> 16000 nM	0.986	> 1020 nM	0.975	> 20000 nM	0.474	263 nM	0.761	103 nM	0.964	> 10200 nM	0.61	134 nM	0.984	> 10000 nM
BFTC-909 (kidney, adherent)	0.962	> 20000 nM	0.962	> 16000 nM	0.988	> 1020 nM	0.968	> 20000 nM	0.417	186 nM	0.584	27 nM	0.98	> 10200 nM	0.397	33.6 nM	0.943	> 10000 nM
BHY (head and neck, adherent)	0.948	> 20000 nM	0.956	> 16000 nM	0.983	> 1020 nM	0.952	> 20000 nM	0.63	716 nM	0.441	11.1 nM	0.987	> 10200 nM	0.181	6.98 nM	0.985	> 10000 nM
BPH-1 (prostate, adherent)	0.802	11000 nM	0.975	> 16000 nM	0.982	> 1020 nM	0.975	> 20000 nM	0.519	355 nM	0.452	11.7 nM	0.979	> 10200 nM	0.233	9.76 nM	0.948	> 10000 nM
C32 (melanoma, adherent)	0.903	> 20000 nM	0.974	> 16000 nM	0.986	> 1020 nM	0.982	> 20000 nM	0.78	2200 nM	0.671	49.5 nM	0.982	> 10200 nM	0.912	> 1020 nM	0.984	> 10000 nM
CAL-12T (non-small cell lung carcinoma, adherent)	0.821	13500 nM	0.948	> 16000 nM	0.982	> 1020 nM	0.965	> 20000 nM	0.703	1260 nM	0.414	9.01 nM	0.927	> 10200 nM	0.23	9.43 nM	0.974	> 10000 nM

Cell Line	AUC (MP470)	IC50 (MP470)	AUC (LFM-A13)	IC50 (LFM-A13)	AUC (Bicalutamide; [1])	IC50 (Bicalutamide; [1])	AUC (KIN001-270)	IC50 (KIN001-270)	AUC (TW-37)	IC50 (TW-37)	AUC (AUY922)	IC50 (AUY922)	AUC (T0901317)	IC50 (T0901317)	AUC (Gemcitabine)	IC50 (Gemcitabine)	AUC (Bicalutamide; [2])	IC50 (Bicalutamide; [2])
CAL-54 (kidney, adherent)	0.985	> 20000 nM	0.839	13200 nM	0.984	> 1020 nM	0.969	> 20000 nM	0.403	163 nM	0.936	> 256 nM	0.984	> 10200 nM	0.729	320 nM	0.982	> 10000 nM
CAMA-1 (breast, adherent)	0.893	> 20000 nM	0.977	> 16000 nM	0.924	> 1020 nM	0.951	> 20000 nM	0.605	652 nM	0.702	69.3 nM	0.969	> 10200 nM	0.723	327 nM	0.961	> 10000 nM
COLO-792 (melanoma, adherent)	0.277	296 nM	0.935	> 16000 nM	0.986	> 1020 nM	0.988	> 20000 nM	0.499	310 nM	0.741	77.2 nM	0.985	> 10200 nM	0.977	> 1020 nM	0.986	> 10000 nM
COR-L23 (large cell lung carcinoma, adherent)	0.937	> 20000 nM	0.931	> 16000 nM	0.987	> 1020 nM	0.96	> 20000 nM	0.611	627 nM	0.471	13.3 nM	0.963	> 10200 nM	0.314	19.6 nM	0.982	> 10000 nM
COR-L105 (lung adenocarcinoma, adherent)	0.791	11300 nM	0.946	> 16000 nM	0.982	> 1020 nM	0.933	> 20000 nM	0.63	772 nM	0.564	24.9 nM	0.957	> 10200 nM	0.405	33 nM	0.965	> 10000 nM
ChaGo-K-1 (non-small cell lung carcinoma, adherent)	0.981	> 20000 nM	0.978	> 16000 nM	0.984	> 1020 nM	0.967	> 20000 nM	0.532	388 nM	0.661	48.2 nM	0.976	> 10200 nM	0.713	284 nM	0.983	> 10000 nM
EFM-192A (breast, adherent)	0.95	> 20000 nM	0.921	> 16000 nM	0.986	> 1020 nM	0.976	> 20000 nM	0.75	1790 nM	0.493	15.2 nM	0.986	> 10200 nM	0.153	4.66 nM	0.976	> 10000 nM
EN (endometrium, adherent)	0.95	> 20000 nM	0.977	> 16000 nM	0.979	> 1020 nM	0.944	> 20000 nM	0.609	678 nM	0.884	> 256 nM	0.983	> 10200 nM	0.833	922 nM	0.98	> 10000 nM
KYSE-180 (oesophagus, adherent)	0.976	> 20000 nM	0.911	> 16000 nM	0.987	> 1020 nM	0.98	> 20000 nM	–	–	0.42	9.76 nM	0.981	> 10200 nM	0.295	17.4 nM	0.952	> 10000 nM
NCI-H838 (lung adenocarcinoma, adherent)	0.267	262 nM	0.968	> 16000 nM	0.987	> 1020 nM	0.982	> 20000 nM	–	–	0.823	159 nM	0.975	> 10200 nM	0.782	448 nM	0.984	> 10000 nM
NCI-H2228 (lung adenocarcinoma, adherent)	0.973	> 20000 nM	0.909	> 16000 nM	0.941	> 1020 nM	0.976	> 20000 nM	–	–	0.478	13.5 nM	0.931	> 10200 nM	0.121	< 4 nM	–	–
RMG-I (ovary, adherent)	0.914	> 20000 nM	0.982	> 16000 nM	0.979	> 1020 nM	0.978	> 20000 nM	–	–	0.847	237 nM	0.983	> 10200 nM	0.979	> 1020 nM	0.954	> 10000 nM
SNU-398 (liver, adherent)	0.928	> 20000 nM	0.985	> 16000 nM	0.981	> 1020 nM	0.921	> 20000 nM	–	–	0.49	15 nM	0.925	> 10200 nM	0.89	> 1020 nM	0.975	> 10000 nM
SNU-475 (liver, adherent)	0.979	> 20000 nM	0.989	> 16000 nM	0.989	> 1020 nM	0.985	> 20000 nM	–	–	0.938	> 256 nM	0.984	> 10200 nM	0.947	> 1020 nM	–	–
UACC-812 (breast, adherent)	0.98	> 20000 nM	0.988	> 16000 nM	0.991	> 1020 nM	0.985	> 20000 nM	–	–	0.906	> 256 nM	0.989	> 10200 nM	0.969	> 1020 nM	–	–

Lines with a small IC50 respond at low doses; a limit (>, <) means that the fit lies beyond the doses tested. AUC sums up the same curve from the lowest dose to the 256-fold higher top dose: 1 means no effect, lower means more sensitive. For part of these data: The top dose, if marked as inferred, was derived from the fitted curves, not read from the paper. For part of these data: An entry number marks a drug with two screens in the source, which often give different values.
